The source of these data is article PMC4336329 (PLoS ONE, 2015).

SMILES strings stand for the structures. About 2,200 (0.71%) of roughly 310,000 compounds showed an effect of 50% or more. Effects have a minus sign here. The list shows a part of the results.

For this experiment, the target named is human ether-à-go-go-related gene (hERG) potassium channel (human, UniProt Q12809). The experiment in a line: primary screen, population patch clamp on CHO cells stably expressing hERG.
Sequence of human ether-à-go-go-related gene (hERG) potassium channel (Q12809 whole entry, looked up): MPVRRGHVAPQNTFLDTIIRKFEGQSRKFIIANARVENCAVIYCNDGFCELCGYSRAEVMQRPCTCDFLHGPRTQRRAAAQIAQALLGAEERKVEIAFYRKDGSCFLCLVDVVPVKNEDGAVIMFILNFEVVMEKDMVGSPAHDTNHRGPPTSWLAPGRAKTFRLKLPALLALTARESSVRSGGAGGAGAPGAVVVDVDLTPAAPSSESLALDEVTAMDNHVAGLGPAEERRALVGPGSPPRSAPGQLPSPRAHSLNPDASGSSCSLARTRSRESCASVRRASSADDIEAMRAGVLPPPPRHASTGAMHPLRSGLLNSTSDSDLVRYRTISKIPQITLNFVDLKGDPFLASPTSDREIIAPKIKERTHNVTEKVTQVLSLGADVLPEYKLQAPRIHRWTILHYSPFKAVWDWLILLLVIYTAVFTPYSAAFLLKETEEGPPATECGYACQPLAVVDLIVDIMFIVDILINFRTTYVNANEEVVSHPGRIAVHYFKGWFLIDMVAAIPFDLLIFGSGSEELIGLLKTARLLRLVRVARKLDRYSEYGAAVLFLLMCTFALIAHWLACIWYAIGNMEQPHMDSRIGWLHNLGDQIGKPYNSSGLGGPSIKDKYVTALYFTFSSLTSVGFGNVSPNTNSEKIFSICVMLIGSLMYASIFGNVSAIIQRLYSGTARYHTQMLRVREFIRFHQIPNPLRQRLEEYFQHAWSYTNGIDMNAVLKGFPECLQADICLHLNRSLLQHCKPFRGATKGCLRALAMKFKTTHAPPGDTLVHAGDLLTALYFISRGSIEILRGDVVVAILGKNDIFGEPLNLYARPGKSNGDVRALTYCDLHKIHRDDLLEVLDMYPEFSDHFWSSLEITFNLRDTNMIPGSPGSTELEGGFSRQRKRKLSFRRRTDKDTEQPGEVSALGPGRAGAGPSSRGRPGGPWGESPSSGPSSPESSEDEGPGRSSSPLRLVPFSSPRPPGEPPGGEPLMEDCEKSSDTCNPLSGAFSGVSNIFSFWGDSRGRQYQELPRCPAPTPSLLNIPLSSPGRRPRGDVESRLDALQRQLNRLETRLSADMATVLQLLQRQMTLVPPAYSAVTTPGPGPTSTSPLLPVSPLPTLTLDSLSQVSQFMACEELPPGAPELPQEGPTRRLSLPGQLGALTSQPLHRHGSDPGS
Consider `CCCn1cc(S(=O)(=O)c2ccccc2)c(=O)c2cc(CC)ccc21`, for which the “hERG current change (%, negative = inhibition) at 1uM” value is reported as 9.4%.
`COc1ccccc1-c1noc(-c2ccccc2C(=O)NCC2CCCO2)n1` (stereo not drawn): the “hERG current change (%, negative = inhibition) at 1uM” value is 14.1%.
For `N#Cc1c(NC(=S)NC(=O)c2ccccc2)sc2c1CCN(CCc1ccccc1)C2` the value was 2.87%; for `CON(c1nc(Cl)nc(N(C)C)n1)S(=O)(=O)c1ccccc1Cl`, 6.38%; for `CN(CC(=O)Nc1ccccc1Cl)C(=O)c1cccc(S(=O)(=O)N2CCN(c3ccc(F)cc3)CC2)c1`, 6.29%.
In the case of `O=C(N/N=C/c1ccccc1O)C1SCCCS1` it was -1.63%; in that of `Cc1ccc(C(=O)NC(=S)Nc2c(C)ccc3nsnc23)cc1`, 0.803%.
For `Cc1c(Cl)cccc1-n1c(SCC(=O)N2CCC(C(=O)O)CC2)nnc1-c1ccncc1` the value was 26.3%; for `c1ccc2cc(CSCc3nc4ccccc4[nH]3)ccc2c1`, 8.19%; for `COc1cc(S(=O)(=O)N2CCOCC2)ccc1N`, 13.2%.
Consider `CCc1noc(C)c1C(=O)Nc1nc2ccc(S(C)(=O)=O)cc2s1`, for which the “hERG current change (%, negative = inhibition) at 1uM” value worked out at 11.6%.
For `O=C(/C=C/c1ccccc1)N(Cc1cccc(Cl)c1)C1CCS(=O)(=O)C1` (stereo not drawn) the value was 10.2%; for `Cc1ccc(NC(=O)CN2CCN(S(=O)(=O)c3cccs3)CC2)cc1S(=O)(=O)N(C)C`, -2.13%; for `O=C(CCC(=O)OCC(=O)c1cccc([N+](=O)[O-])c1)Nc1cccc(Cl)c1Cl`, 11.8%.
For `COCCN1Cc2cc3cc(C)ccc3nc2SC1=Nc1cccc(OC)c1` the value was 16.1%; for `O=C(C1CCCN(S(=O)(=O)c2ccccc2)C1)N1CCCCCC1` (stereo not drawn), 1.26%; for `O=C(NNS(=O)(=O)c1ccc(Cl)cc1)c1cccs1`, 14.9%.
For `COc1ccc(S(=O)(=O)N2CCN(c3nc(C)cc(C)n3)CC2)cc1` the value was 7.75%; for `CCOc1ccc2c(c1)sc(=NC(=O)C1CC1)n2C`, 10.6%.
As to `COc1ccc(CN2CCNC(=O)C2CC(=O)N2CCc3ccccc3C2)c(OC)c1` (stereo not drawn), the “hERG current change (%, negative = inhibition) at 1uM” value came out at 17.7%.
In the case of `COc1cc(C2(c3ccc(O)c(OC)c3)C(=O)Nc3c(C)cc(Br)cc32)ccc1O` it was 7.77%.
As for `CCN1CCN(CCC2Oc3cc([N+](=O)[O-])ccc3NC2=O)CC1` (stereo not drawn), the “hERG current change (%, negative = inhibition) at 1uM” value was 6.29%.
For `c1ccc2c(c1)CCN(c1nc3ccccc3n3cnnc13)C2` the value was 11%; for `CCSc1nc(=S)n(CC)c(C)c1C(C)=O`, 3.19%; for `COc1cc2cc(CN(CCCN3CCOCC3)Cc3nnnn3Cc3ccccc3)c(=O)[nH]c2cc1OC`, 1.31%.
In the case of `COc1ccc(C(=O)Nc2nc(N)n(-c3ccccc3)n2)cc1OC` it was 7.67%; in that of `CN(CC(=O)Nc1ccc(F)cc1)CC(=O)N1CCCCCC1`, 9.66%; in that of `CN(C)S(=O)(=O)c1cccc(NC(=S)N/N=C/C2CC=CCC2)c1` (stereo not drawn), 6.89%.
As to `O=C(c1ccccc1)C1CCN(C(=O)c2c(F)cccc2F)CC1`, the “hERG current change (%, negative = inhibition) at 1uM” value is 10.2%.
For `CCOc1ccc(CNC(=O)c2ccc(NC(=O)C3=CSCCO3)cc2)cc1` the value was 3.68%; for `Cc1cc(C)c(C)c(S(=O)(=O)N2CCN(Cc3nc4ccccc4[nH]3)CC2)c1C`, 0.587%; for `CN(C)CCN(Cc1cc2cc3c(cc2[nH]c1=O)OCO3)C(=S)NCc1ccco1`, 5.49%.
In the case of `Cl.O=C([C@H](Cc1ccc(O)cc1)n1cc(CCO)nn1)N1CCNCC1` it was 18.7%.
For the molecule `NC(=O)CSc1nnc(-c2ccncc2)n1-c1ccc(Cl)cc1`, the “hERG current change (%, negative = inhibition) at 1uM” value is reported as -3.17%.
For `COCCN(C(=O)COC(=O)Cc1cccc(OC)c1)c1c(N)n(Cc2ccccc2)c(=O)[nH]c1=O` the value was -2.76%.
In the case of `COc1cccc(OC)c1OCCNC(C)(C)C.O=C(O)C(=O)O` it was 13.1%.
For `Cn1[nH]c(=O)c(Cl)c(Cl)c1=O` the value was 11.8%; for `O=c1cc(CN2CCN(c3ccccn3)CC2)nc2sccn12`, 9.39%; for `Fc1ccc(Cc2nnc(-c3cccs3)o2)cc1`, -2.04%.
For the molecule `O=C(Nc1ccc(NC(=O)c2sc3ccccc3c2Cl)cc1)c1ccco1`, the “hERG current change (%, negative = inhibition) at 1uM” value came to 19.1%.
In the case of `N#C/C(=C\c1ccc(-c2cccc([N+](=O)[O-])c2)o1)C(=O)NCCN1CCOCC1` it was -12.7%; in that of `COc1cccc(CN(C)C(=O)c2cc(-c3ccc(OC)c(OC)c3)nc3ccccc23)c1`, 7.34%.
For `COc1ccc(NC(=S)N/C(=N/S(=O)(=O)c2ccc(C)cc2)c2ccccc2)cc1` the value was 14.1%; for `Cl.Nc1ccc(Br)c2cccnc12`, 23.4%.
For `Cc1ccc(S(=O)(=O)CC2CSc3nnc(C)c(=O)n32)cc1` (stereo not drawn), the “hERG current change (%, negative = inhibition) at 1uM” value came to 21.1%.
For `CC1(C)Cc2c(cnn2-c2cccc(F)c2)C(NC(=O)c2ccc(=O)[nH]n2)C1` (stereo not drawn) the value was -61.7%.
In the case of `COc1ccc(N2CCN(CCCn3c(=S)[nH]c4ccccc4c3=O)CC2)cc1` it was -16.2%; in that of `c1ccc2c(c1)COC(CNC1CCCCC1)OC2`, 9.09%.
In the case of `CC(NC(=O)COC(=O)c1cc(Cl)ccc1O)C1CC2CCC1C2` (stereo not drawn) it was 10.2%; in that of `CC(C)(C)C(=O)N1CCN(c2nc3ccccc3s2)CC1`, 0.817%.
On to `Cc1cc(C)c(S(=O)(=O)c2ccccc2C)c(SCC(C)C)n1`, for which the “hERG current change (%, negative = inhibition) at 1uM” value is on record as -1%.
In the case of `CCOc1ccc(OCC)c(NC(=O)CSc2nc3c(c(=O)n(C)c(=O)n3C)n2CC)c1` it was -4.59%; in that of `CN(C)CCNC(=O)CCn1nc(-c2ccc(Cl)cc2)ccc1=O`, 6.61%.
For `CC(=O)Nc1ccc(S(=O)(=O)Nc2ccc(S(=O)(=O)Nc3nc(C)cc(C)n3)cc2)cc1` the value was 16.6%.
Consider `O=C(O)CCCn1c(=S)[nH]c2c(sc3ccc([N+](=O)[O-])cc32)c1=O`, for which the “hERG current change (%, negative = inhibition) at 1uM” value is 16.9%.
Regarding `COc1ccc(/C=C(\NC(=O)c2ccccc2)C(=O)N2CCN(C)CC2)cc1`, the “hERG current change (%, negative = inhibition) at 1uM” value is -75.2%.
In the case of `COc1ccc(NC(=O)CSc2nnnn2C2CCCCC2)cc1` it was 12.3%; in that of `Cc1sc(N/N=C/c2cccs2)nc1-c1ccccc1`, 2.84%.
In the case of `Cc1cccc(-c2nnc(SCc3cc(=O)[nH]c4ccccc34)n2C)c1` it was -16.2%.
In the case of `CCOP(=O)(OCC)C(O)c1cccc([N+](=O)[O-])c1` (stereo not drawn) it was 7.94%; in that of `O=C(NC1CCCC1)C1CCN(S(=O)(=O)N2CCCCC2)CC1`, 11.9%.
Consider `O=C(COC(=O)CCC(=O)c1cccs1)Nc1ccccc1[N+](=O)[O-]`, for which the “hERG current change (%, negative = inhibition) at 1uM” value was determined as 10.3%.
In the case of `CN(Cc1ccco1)S(=O)(=O)c1nnc(NC(=O)c2ccc(F)cc2)s1` it was 10.4%; in that of `CCCCNC(=O)CC1S/C(=N/N=C/c2ccc(OC)cc2)NC1=O` (stereo not drawn), 13.3%; in that of `COc1cc(C)c(Cl)cc1S(=O)(=O)N1CCCC1`, 16.6%.
In the case of `C#C[C@]1(O)CC[C@H]2[C@@H]3CCc4cc(OC5CCCC5)ccc4[C@H]3CC[C@@]21C` it was 17.6%.
In the case of `CCCC(CCC)C(=O)Nc1ccc2c(c1)N(C(=O)CCN1CCN(C)CC1)c1ccccc1CC2.Cl` it was 5.65%; in that of `CCOc1ccc(-c2cc(NC(=O)c3c(F)cccc3F)c(C(=O)O)s2)cc1`, 16.4%.
For the molecule `CC(=O)OCC(=O)[C@@]1(OC(C)=O)[C@@H](C)C[C@H]2[C@@H]3C[C@H](F)C4=CC(=O)C=C[C@]4(C)[C@@]3(F)[C@@H](O)C[C@@]21C`, the “hERG current change (%, negative = inhibition) at 1uM” value was -5.51%.
As for `CC(C)[C@H](NC(=O)C1CCN(S(=O)(=O)c2ccc(F)cc2)CC1)C(=O)N1CCCCCC1`, the “hERG current change (%, negative = inhibition) at 1uM” value was found to be 25.7%.
With `CNS(=O)(=O)c1cc(O)c2c(S(=O)(=O)NC)cccc2c1`, the “hERG current change (%, negative = inhibition) at 1uM” value is 13.7%.
In the case of `CC(=O)NC(C)(C)C1CC=C(C)/C(=N\O)C1` (stereo not drawn) it was -7.13%; in that of `CC(C)[C@H](NC(=O)NC1CCCC1)C(=O)O`, 11%.
Consider `Cc1ccc(NC(=O)C2(N(CC(C)C)C(=O)Cn3nnnc3N)CCCCC2)cc1`, for which the “hERG current change (%, negative = inhibition) at 1uM” value is reported as -0.3%.
On to `CCCCS(=O)(=O)N1CCC(C(=O)Oc2ccc(Cl)cc2)CC1`, for which the “hERG current change (%, negative = inhibition) at 1uM” value stood at 17.9%.
As to `Cc1ccc(-c2noc(C3CCCN(C(=O)c4ccccc4Br)C3)n2)cc1` (stereo not drawn), the “hERG current change (%, negative = inhibition) at 1uM” value was 12.4%.
For the molecule `CC(=O)N1CCCc2cc(S(=O)(=O)Nc3ccc(C)cc3C)ccc21`, the “hERG current change (%, negative = inhibition) at 1uM” value is -2.03%.
For the molecule `CC(N)Cc1c[nH]c2c1ccc1ccccc12.Cl` (stereo not drawn), the “hERG current change (%, negative = inhibition) at 1uM” value came to 12.7%.
For `COc1ccc(N/N=C(\C#N)C(=O)NCCc2ccc(OC)c(OC)c2)cc1` the value was 10.9%.
For `O=C(CNC(=O)c1ccco1)N/N=C/c1c[nH]c2ccccc12` the value was 6.71%.
In the case of `O=C(O)CC(Cc1ccc(Br)cc1)C(=O)O` (stereo not drawn) it was 9.97%.
`NC(=O)CC(NC(=O)c1ccccc1)c1ccc(NC2CCN(Cc3ccccc3)CC2)c([N+](=O)[O-])c1` (stereo not drawn): the “hERG current change (%, negative = inhibition) at 1uM” value was 6.21%.
In the case of `CC(C)OCCCNc1ncnc2c1cnn2-c1ccccc1` it was 2.86%; in that of `O=C(NCCCn1ccnc1)/C(=C/c1ccccc1)NC(=O)c1ccccc1`, -47.6%; in that of `Br.CCOc1ccc(C2=Nn3c(CC)nnc3SC2)cc1`, 10.8%.
Take `COc1ccc(Nc2nc3ccc(OC)cc3s2)cc1`: the “hERG current change (%, negative = inhibition) at 1uM” value was determined as 7.96%.
With `O=C1NC(c2ccc(Cl)c([N+](=O)[O-])c2)Nc2ccccc21` (stereo not drawn), the “hERG current change (%, negative = inhibition) at 1uM” value turned out to be 16.9%.
